Assay results: PubChem BioAssay AID652104 (National Center for Advancing Translational Sciences (NCATS), 2013)
Hit rate of the full screen: of about 410,000 compounds, about 7,200 (1.8%) were called active. Inconclusive results, whose numbers are uncertain, are shown with a selection of clear calls. Calls come from the whole dose curve; as a rule, active = well fitted activation curve with a large enough effect; inconclusive = small, poorly fitted or top-dose-only effect, or another doubt; inactive = no such curve, though single readings can be large or run the other way. No potency is given beside an inconclusive call; the fits are too rough.

assay: qHTS of TDP-43 Inhibitors; conditions: TDP-43 expressing yeast growth rescue, BacTiter-Glo, 24 h; series mostly up to 46.1 µM; note: nearly all actives have a fitted effect of over 50% in size
Summary of the method: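 Luminescence from BacTiter-Glo reports growth of TDP-43-expressing yeast after 24 hr at 30 deg C with compound. Cells were raffinose-pregrown to mid-log, then seeded in galactose medium at OD600=0.02.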
Potency is the fitted concentration of half-maximal effect; tags give direction and shape of the fitted curve.

Row | Structure (SMILES) | Potency
1 | O=C(NCCc1ccccc1)C1Cc2c(-c3ccc(Cl)cc3)ccnc2O1 (stereo not drawn) | inconclusive [activator, single point]
2 | C=CCNc1nc2c(c(=O)[nH]c(=O)n2C)n1CCCCC | inactive
3 | C=CCSc1ncccc1C(=O)NCCc1ccc(Cl)cc1 | inconclusive [activator, partial curve]
4 | Cc1nc2c(c(C)nn2-c2ccccc2)c(C)c1CCC(=O)NCCc1ccc(Cl)cc1 | inconclusive [activator, partial curve, poor fit]
5 | C=CCN1CCc2cc(O)c(O)cc2C(c2ccccc2)C1 (stereo not drawn) | inconclusive [activator, partial curve, poor fit]
6 | COc1ccc(C(=O)C(CN2CCOCC2)c2ccccc2)cc1 (stereo not drawn) | inconclusive [activator, single point]
7 | CCOC(=O)c1c(C)[nH]c(C)c1S(=O)(=O)N1CCC(C(=O)Nc2ccc(C)c(Cl)c2)CC1 | inconclusive [activator, partial curve, poor fit]
8 | CN1CCCC(C)(C(=O)Nc2cccc(Oc3ccccc3)c2)C1 (stereo not drawn) | inactive
9 | Cc1c(NC(=O)c2ccc(Br)o2)cccc1-c1nc2ccccc2o1 | inactive
10 | CC1(C)CC(c2nc(-c3ccc(Br)cc3)cs2)CCS1 (stereo not drawn) | inconclusive [activator, single point]
11 | O=C(Nc1ccccc1F)c1ccccc1-c1ccc(C(F)(F)F)cc1 | inconclusive [activator, partial curve, poor fit]
12 | Clc1ccccc1Nc1ncnc2c1nc1n2CCCCC1 | active: 17.8 µM
13 | Cc1cccc(Cn2cccc2CNS(=O)(=O)c2ccc(C)c(C)c2)c1 | inconclusive [activator, partial curve]
14 | OC[C@@H]1[C@@H](c2ccccc2)C(c2ccc(F)cc2)=NN1c1ccccc1 | inconclusive [activator, single point]
15 | CN1CCSc2ccc(C(=O)NCc3ccccc3)cc21 | inconclusive [activator, single point]
16 | COc1ccc(CC(=O)NCc2ccc3c(c2)CCN3C(=O)c2cccc(C)c2)cc1 | inconclusive [activator, single point]
17 | Cc1ccc(Cc2ccccc2C(=O)O)cc1 | inconclusive [activator, single point]
18 | CCn1nnc(NC(=O)c2ccc(-c3ccc(Cl)cc3)o2)n1 | inconclusive [activator, partial curve]
19 | CC(=O)Nc1cc2c(c([N+](=O)[O-])c1C)C(C)(C)CC2(C)C | inconclusive [activator, partial curve]
20 | C=CCn1c(C)cc(C(=O)CSc2nnc3c(Cl)cc(Cl)cn23)c1C | inconclusive [activator, single point]
21 | Cc1nc2ccn(Cc3cccs3)c(=O)c2cc1C(=O)N1CCN(c2ccccc2)CC1 | inactive
22 | CC(C)(C)OC(=O)N[C@@H](Cc1ccccc1)c1nnc(S(=O)(=O)Cc2cccc(F)c2)o1 | active: 5.01 µM
23 | Cc1nc(CC(=O)N2CCN(c3cccc(C)c3C)CC2)cs1 | inconclusive [activator, partial curve]

Row | Structure (SMILES) | Potency
24 | CCOC(=O)c1ccccc1NS(=O)(=O)c1c(C)nc2sccn2c1=O | inconclusive [activator, single point]
25 | Cc1ccccc1NC(=S)N(Cc1ccccn1)Cc1ccccc1Cl | inconclusive [activator, single point]
26 | COCCNC(=O)c1ccc(CSCc2cccc(Cl)c2)o1 | inconclusive [activator, partial curve]
27 | COc1ccc(Cl)cc1C(=O)NCC#N | inconclusive [activator, partial curve]
28 | NCCCS(=O)(=O)O | inconclusive [activator, partial curve]
29 | CC(=O)Nc1ccc(-c2ccnc3c2CC(C)(C(=O)Nc2ccc(F)c(Cl)c2)O3)cc1 (stereo not drawn) | inconclusive [activator, partial curve]
30 | C#CCOC(=O)c1csc2nnsc12 | inconclusive [activator, single point]
31 | C/C(=N\NC(=O)c1ccc(Cl)c(Cl)c1)c1ccccn1 | active: 7.08 µM
32 | Cc1cscc1-c1cc2nc(NCCCN(C)C)n(C)c(=O)c2s1 | inconclusive [activator, full curve, poor fit]
33 | Cc1ccsc1C1Nc2ccc3ncccc3c2C2=C1C(=O)CC(C)(C)C2 (stereo not drawn) | inactive
34 | COc1ccc2[nH]c(-c3ccc(C)cc3)cc(=O)c2c1 | inactive
35 | CCOC(=O)CSc1nc2sc(C)c(C)c2c(=O)n1C | active: 11.2 µM
36 | CCOC(=O)[C@]12CCC=C1N(Cc1ccc(Cl)cc1Cl)C(=O)[C@H](CC(=O)N1CCN(C(=O)c3ccco3)CC1)C2 | inconclusive [activator, single point]
37 | CCc1ccc2ncc3c(-c4ccc(C)cc4)nn(CC(=O)Nc4ccc(C)cc4)c3c2c1 | inconclusive [activator, partial curve]
38 | COc1cccc(CC(=O)Nc2cc(C(F)(F)F)ccc2N2CCCC2)c1 | inconclusive [activator, partial curve]
39 | Cc1onc(-c2ccccc2Cl)c1C(=O)OCC(=O)Nc1ccc2c(c1)OCO2 | inconclusive [activator, single point]
40 | Cc1ccc2c(c1)NC(=O)CC(c1ccccc1)=N2 | inconclusive [activator, single point]
41 | CCOc1cccc(Nc2ccc([N+](=O)[O-])cn2)c1 | inconclusive [activator, single point]
42 | CCOC(=O)N1CCN(Cc2nnc(-c3cccc(Br)c3)o2)CC1 | inconclusive [activator, single point]
43 | CSc1ccc(CCNc2ncnc3onc(-c4ccc(Cl)cc4)c23)cc1 | inconclusive [activator, partial curve]
44 | Cc1cc(C)c2sc(N3CCN(C(=O)C4CC4)CC3)nc2c1 | active: 12.6 µM
45 | CC(=O)c1cccc(NC(=O)c2cccc3ccccc23)c1 | inconclusive [activator, partial curve]
46 | CCOC(=O)N1CCC(NC(=O)C(NS(=O)(=O)c2cccc3nsnc23)c2ccccc2)CC1 (stereo not drawn) | inconclusive [activator, partial curve]

Row | Structure (SMILES) | Potency
47 | O=C(NCC1CCCO1)c1cccc(Oc2ccccc2)c1 (stereo not drawn) | inconclusive [activator, single point]
48 | CC(C)c1ccccc1OCC(=O)Nc1ccccc1C(=O)N1CCOCC1 | inconclusive [activator, partial curve]
49 | Cc1ccc(NC(=O)C2CCN(S(=O)(=O)c3cccs3)CC2)cc1 | inconclusive [activator, partial curve]
50 | Cc1ccsc1/C=N/Nc1ccc(C(=O)O)cc1 | inconclusive [activator, partial curve]
51 | COc1ccccc1N1CCN(C(c2ccccn2)c2nnnn2C2CCCCC2)CC1 (stereo not drawn) | inactive
52 | Cc1cc(C2C(=O)c3ccccc3C2=O)c(C)c(C)c1C | inconclusive [activator, single point]
53 | O=C(COC(=O)c1ccc(O)cc1)Nc1cc(C(F)(F)F)ccc1Cl | inconclusive [activator, full curve, poor fit]
54 | Cc1onc(NC(=O)NC(=O)c2c(Cl)cccc2Cl)c1Br | inconclusive [activator, single point]
55 | CCOc1cccc(CC(=O)N2CCc3c([nH]c4ccccc34)C2c2ccc(OC)cc2)c1OCC (stereo not drawn) | inactive
56 | CC1=C(C(=O)OC2CCCCCC2)C(c2ccccc2Cl)CC(=O)N1 (stereo not drawn) | inconclusive [activator, full curve, poor fit]
57 | CCN1c2ccccc2-c2nc3ccccc3n2C1c1ccco1 (stereo not drawn) | inconclusive [activator, full curve]
58 | CCCC(C(=O)Nc1ccc(S(=O)(=O)N2CCOCC2)cc1)c1ccccc1 (stereo not drawn) | inactive
59 | COc1cc2c(cc1NC(=O)COc1ccccc1OC)oc1ccccc12 | inactive
60 | COc1ccccc1NC(=S)NNC(=O)c1ccccc1 | inconclusive [activator, partial curve]
61 | Cc1cccc(Oc2ccccc2NC(=O)C2=COCCO2)c1 | inconclusive [activator, partial curve]
62 | CCN(CC)CCCNc1cc2n(c(=O)n1)CCc1cc(OC)c(OC)cc1-2 | inactive
63 | CCOC(=O)c1ccc(-c2cc(C)no2)[nH]1 | inconclusive [activator, partial curve]
64 | O=C(NC1CCCCC1)c1sc(=S)n2c1[nH]c(=O)c1ccccc12 | inconclusive [activator, single point]
65 | COc1ccccc1NC(=O)C(CC(C)C)NC(=O)C1CCCCC1 (stereo not drawn) | inactive
66 | CCc1ccc(NS(=O)(=O)c2ccc3[nH]cc(C(=O)N4CCCCCC4)c(=O)c3c2)cc1 | inconclusive [activator, full curve]
67 | Cc1ccc(C)c(N2CCN(C(=O)c3cc4ccccc4oc3=O)CC2)c1 | inconclusive [activator, single point]
68 | NC(=O)c1c(NC(=O)c2ccccc2F)sc2c1CCCC2 | inconclusive [activator, single point]
